# Reference: the supplement of paper PMC8728848
# This is one part of the list.
# B1: SAG3 (Toxoplasma gondii), Q9BJ39 (protein)
# chain: MQLWRRRAAGPASLGRQSLPLGCFFAAFGLCVLSAILGTGERGLFVAAGNSRRKITYFGTLTQKAPNWYRCSSTRAKEEVVGHVTLNKEHPDMTIECVDDGLGGEFLPLEGARSSYPRVCHIDAKDQDDCERNRGFLTDYIPGAKQYWYKIEKVEQNGEQSVLYKFTVPWILLPPAKQRYKVGCRYPNHEYCFVEVTVEPTPPMVEGKRVTCGYSESGPVNLEVDLSKNANFIEIRCGEQHHPQPSTYTLQYCSGDSVDPQKCSPQSLTNIFYDYSSSWWKGKLNGPDGATLTIPPGGFPEEDKSFLVGCSLTVDGPPFCNVKVRVAGNPRKWERGGGGHPGSGGLQPGTDGETQAGTGSSAGASSRMASVALAFLLGLLVHVAA
# Assays:
# Experiment in all cases: glycan array binding signal (z-score within array); higher = stronger binding
# Settings in all cases: glycan notation: IUPAC condensed, linker removed
# [1] = target: Gal(b1-4)GlcNAc(b1-6)[Gal(b1-3)]GalNAc
# In short: (§1)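 Glycan array data were curated from 3228 arrays in the Consortium for Functional Glycomics database and kept only where the protein sequence was available. Glycan names were converted to IUPAC-condensed notation, and columns mapping to the same glycan were averaged. The binding signal is a within-array Z-score, averaged across arrays of the same protein sequence at different concentrations or buffers and across linkers. Negative Z-scores can be read as non-binding.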
# Gal3S(b1-3)GalNAc = target: Gal3S(b1-3)GalNAc
# In short: as §1
# Gal3S(b1-3)GlcNAc = target: Gal3S(b1-3)GlcNAc
# In short: as §1
# [2] = target: Gal3S(b1-3)[Fuc(a1-4)]GlcNAc
# In short: as §1
# Gal3S(b1-4)Glc = target: Gal3S(b1-4)Glc
# In short: as §1
# Gal3S(b1-4)Glc6S = target: Gal3S(b1-4)Glc6S
# In short: as §1
# Gal3S(b1-4)GlcNAc = target: Gal3S(b1-4)GlcNAc
# In short: as §1
# Gal3S(b1-4)GlcNAc6S = target: Gal3S(b1-4)GlcNAc6S
# In short: as §1
# [3] = target: Gal3S(b1-4)[Fuc(a1-3)]Glc
# In short: as §1
# [4] = target: Gal3S(b1-4)[Fuc(a1-3)]Glc6S
# In short: as §1
# Gal3S4S(b1-4)GlcNAc = target: Gal3S4S(b1-4)GlcNAc
# In short: as §1
# Gal3S6S(b1-4)GlcNAc = target: Gal3S6S(b1-4)GlcNAc
# In short: as §1
# Gal3S6S(b1-4)GlcNAc6S = target: Gal3S6S(b1-4)GlcNAc6S
# In short: as §1
# Gal4S(b1-4)GlcNAc = target: Gal4S(b1-4)GlcNAc
# In short: as §1
# Gal4S6S(b1-4)GlcNAc = target: Gal4S6S(b1-4)GlcNAc
# In short: as §1
# Gal6S(b1-4)Glc = target: Gal6S(b1-4)Glc
# In short: as §1
# Gal6S(b1-4)Glc6S = target: Gal6S(b1-4)Glc6S
# In short: as §1
# Gal6S(b1-4)GlcNAc = target: Gal6S(b1-4)GlcNAc
# In short: as §1
# Gal6S(b1-4)GlcNAc6S = target: Gal6S(b1-4)GlcNAc6S
# In short: as §1
# GalNAc(a1-3)Gal = target: GalNAc(a1-3)Gal
# In short: as §1
# GalNAc(a1-3)GalNAc = target: GalNAc(a1-3)GalNAc
# In short: as §1
# [5] = target: GalNAc(a1-3)GalNAc(a1-3)Gal(a1-4)Gal(b1-4)GlcNAc
# In short: as §1
# GalNAc(b1-3)Gal = target: GalNAc(b1-3)Gal
# In short: as §1
# [6] = target: GalNAc(b1-3)Gal(a1-4)Gal(b1-4)GlcNAc
# In short: as §1
# [7] = target: GalNAc(b1-3)Gal(a1-4)Gal(b1-4)GlcNAc(b1-3)Gal(b1-4)Glc
# In short: as §1
# [8] = target: GalNAc(b1-3)Gal(a1-6)Gal(b1-4)Glc
# In short: as §1
# GalNAc(b1-3)GalNAc = target: GalNAc(b1-3)GalNAc
# In short: as §1
# GalNAc(b1-4)GlcNAc = target: GalNAc(b1-4)GlcNAc
# In short: as §1
# [9] = target: GalNAc(b1-4)GlcNAc(b1-2)Man(a1-3)[GalNAc(b1-4)GlcNAc(b1-2)Man(a1-6)]Man(b1-4)GlcNAc(b1-4)GlcNAc
# In short: as §1
# Glc(a1-4)Glc = target: Glc(a1-4)Glc
# In short: as §1
# Glc(a1-6)Glc(a1-6)Glc = target: Glc(a1-6)Glc(a1-6)Glc
# In short: as §1
# Glc(b1-4)Glc = target: Glc(b1-4)Glc
# In short: as §1
# Glc(b1-6)Glc = target: Glc(b1-6)Glc
# In short: as §1
# GlcA(b1-3)Gal = target: GlcA(b1-3)Gal
# In short: as §1
# GlcA(b1-3)GlcNAc = target: GlcA(b1-3)GlcNAc
# In short: as §1
# GlcA(b1-6)Gal = target: GlcA(b1-6)Gal
# In short: as §1
# [10] = target: GlcNAc(a1-3)Gal(b1-4)GlcNAc
# In short: as §1
# [11] = target: GlcNAc(a1-4)Gal(b1-3)GlcNAc
# In short: as §1
binder,measurement,setting,value
B1,glycan array binding signal (z-score),[1],-0.245
same,glycan array binding signal (z-score),Gal3S(b1-3)GalNAc,0.032
same,glycan array binding signal (z-score),Gal3S(b1-3)GlcNAc,-0.181
same,glycan array binding signal (z-score),[2],-0.458
same,glycan array binding signal (z-score),Gal3S(b1-4)Glc,-0.446
same,glycan array binding signal (z-score),Gal3S(b1-4)Glc6S,-0.122
same,glycan array binding signal (z-score),Gal3S(b1-4)GlcNAc,0.012
same,glycan array binding signal (z-score),Gal3S(b1-4)GlcNAc6S,-0.22
same,glycan array binding signal (z-score),[3],-0.443
same,glycan array binding signal (z-score),[4],0.951
same,glycan array binding signal (z-score),Gal3S4S(b1-4)GlcNAc,-0.335
same,glycan array binding signal (z-score),Gal3S6S(b1-4)GlcNAc,-0.055
same,glycan array binding signal (z-score),Gal3S6S(b1-4)GlcNAc6S,-0.18
same,glycan array binding signal (z-score),Gal4S(b1-4)GlcNAc,0.111
same,glycan array binding signal (z-score),Gal4S6S(b1-4)GlcNAc,0.388
same,glycan array binding signal (z-score),Gal6S(b1-4)Glc,-0.036
same,glycan array binding signal (z-score),Gal6S(b1-4)Glc6S,0.161
same,glycan array binding signal (z-score),Gal6S(b1-4)GlcNAc,-0.021
same,glycan array binding signal (z-score),Gal6S(b1-4)GlcNAc6S,-0.075
same,glycan array binding signal (z-score),GalNAc(a1-3)Gal,-0.389
same,glycan array binding signal (z-score),GalNAc(a1-3)GalNAc,-0.218
same,glycan array binding signal (z-score),[5],0.301
same,glycan array binding signal (z-score),GalNAc(b1-3)Gal,0.003
same,glycan array binding signal (z-score),[6],-0.317
same,glycan array binding signal (z-score),[7],0.029
same,glycan array binding signal (z-score),[8],-0.162
same,glycan array binding signal (z-score),GalNAc(b1-3)GalNAc,-0.03
same,glycan array binding signal (z-score),GalNAc(b1-4)GlcNAc,-0.437
same,glycan array binding signal (z-score),[9],0.581
same,glycan array binding signal (z-score),Glc(a1-4)Glc,-0.209
same,glycan array binding signal (z-score),Glc(a1-6)Glc(a1-6)Glc,-0.156
same,glycan array binding signal (z-score),Glc(b1-4)Glc,0.326
same,glycan array binding signal (z-score),Glc(b1-6)Glc,-0.281
same,glycan array binding signal (z-score),GlcA(b1-3)Gal,-0.281
same,glycan array binding signal (z-score),GlcA(b1-3)GlcNAc,-0.372
same,glycan array binding signal (z-score),GlcA(b1-6)Gal,-0.241
same,glycan array binding signal (z-score),[10],0.097
same,glycan array binding signal (z-score),[11],-0.321
